The list shows a part of the results. At the low end of the ranking the order means little.

This assay deals with SIX1-Q177R homeodomain (UniProt Q15475). Put plainly: universal protein binding microarray. Conditions: Universal all-10-mer PBM (8x60K, AMADID 030236), 300 nM GST-tagged protein, Alexa Fluor 488 anti-GST; buffer, salt, pH and temperature not stated; high values mean tight binding; most listed sequences are background and not binding sites; double strand, one strand shown.
With ATTGTTGA, the binding signal came to 0.107 E-score.
Regarding CCTAGACA, the binding signal came to 0.199 E-score.
AACCATGT: the binding signal is -0.105 E-score.
With GACACTAC the figure was 0.434 E-score; with ACGGGTAG, 0.153 E-score; with CAGCGCAG, 0.0298 E-score.
The value for CCCGAAGC was 0.12 E-score; that for AGGAGATA was -0.0808 E-score; that for GGGGAGAA was -0.0683 E-score.
With GATGGTGA the figure was -0.177 E-score; with ACGCCCAT, 0.112 E-score; with CAGTGGTA, 0.0072 E-score.
For the sequence AGCTCTCA, the binding signal was -0.0526 E-score.
Take CATTGCCG: the binding signal was -0.0863 E-score.
The value for ACACATAT was 0.239 E-score.
With GCCCTACC the figure was 0.0917 E-score; with CCTCAGCA, 0.022 E-score.
With GTAGTTAA the figure was 0.146 E-score; with AGGCCGGG, 0.0289 E-score; with ATTCATAG, -0.123 E-score.
As for CGCCCCCA, the binding signal stood at 0.166 E-score.
With AATCGGTG the figure was 0.317 E-score.
Take CCCATGAA: the binding signal was 0.068 E-score.
As to TACTCCCA, the binding signal was determined as 0.16 E-score.
The value for GGCTTCAA was -0.161 E-score; that for GTCATCCA was 0.0663 E-score.
With ATCATGTG the figure was 0.0343 E-score; with CTCAGGCC, -0.119 E-score; with AACGTGTA, 0.353 E-score.
As for CCCTAGCA, the binding signal worked out at 0.17 E-score.
Consider CTTCGGAA, for which the binding signal was -0.0623 E-score.
For ACCAACAG, the binding signal came to 0.137 E-score.
With GATTATGC the figure was 0.0684 E-score; with AGCTCGTC, -0.197 E-score.
The value for AACACACA was 0.262 E-score; that for AAGTCAGT was -0.0376 E-score; that for CCCCCGGA was 0.263 E-score.
As for CGAACTAA, the binding signal is -0.155 E-score.
With ATCACTCG the figure was 0.0123 E-score.
As to CTGGCTCC, the binding signal is -0.151 E-score.
The value for CGAGGCAC was -0.0452 E-score.
In the case of ATTCCATC, the binding signal is -0.176 E-score.
The value for ACATTAGA was -0.153 E-score; that for CCAAGTGG was 0.0372 E-score.
With GTGGAAAC the figure was -0.158 E-score; with AATAAGAT, -0.145 E-score; with GTGTTTGA, 0.35 E-score.
Turning to AACATAAT, the binding signal is -0.249 E-score.
The value for AAGGTTGA was -0.201 E-score; that for AGTCCGAA was -0.169 E-score.
With CACTCCAG the figure was 0.225 E-score; with CACAAGGA, 0.0271 E-score.
The value for AGGGGATC was 0.207 E-score; that for AGGGCACA was 0.128 E-score.
With AATGGACT, the binding signal is -0.254 E-score.
With AGTTACTC the figure was 0.0169 E-score; with CTGACCAC, -0.216 E-score.
The value for CTGGTGCA was 0.234 E-score; that for ATTCGAAG was -0.23 E-score; that for TGATACAA was 0.0915 E-score.
With GGGGGGAA the figure was -0.0687 E-score.
Take CATCGGGG: the binding signal turned out to be 0.139 E-score.
The value for GTATCATA was 0.29 E-score; that for AAATAGTA was -0.0489 E-score.
With ATGAAATG the figure was -0.167 E-score; with AGCTAAGC, -0.256 E-score; with CGATCTAG, -0.114 E-score.
Take ACACGTTA: the binding signal came out at 0.297 E-score.
The value for CAATCGGC was -0.266 E-score; that for AATTCCAT was -0.16 E-score.
For CAACAATG, the binding signal amounted to 0.212 E-score.
Turning to GACCAAAC, the binding signal is -0.0383 E-score.
As for AGCCATCC, the binding signal was -0.107 E-score.
For AAAGTGCT, the binding signal was -0.0967 E-score.
For the sequence CCGCAGGC, the binding signal is 0.174 E-score.
The value for CCTCCAGG was 0.0531 E-score; that for ATGCAGTA was -0.0516 E-score; that for CAATTGTA was -0.132 E-score.
For ACTCCCCA, the binding signal amounted to 0.163 E-score.
As for AGGGGGTA, the binding signal stood at 0.358 E-score.
For CGCTACAA, the binding signal is -0.269 E-score.
Regarding CCGTATCC, the binding signal is 0.122 E-score.
As for CACACATC, the binding signal turned out to be 0.0348 E-score.
Take CCCTTACG: the binding signal is -0.0335 E-score.
GAACACTC: the binding signal stood at 0.374 E-score.
On to CACCGACG, for which the binding signal is 0.304 E-score.
For TAACTACA, the binding signal was found to be 0.239 E-score.
Consider CCTGTTAG, for which the binding signal is 0.00577 E-score.
The value for AGTCTCAC was -0.125 E-score.
Turning to AATTTACC, the binding signal amounted to 0.0141 E-score.
The value for GTCGAATA was -0.0512 E-score.
With ACTAATGC the figure was 0.0774 E-score; with ATGATTAA, -0.224 E-score.
On to AATAGTAA, for which the binding signal is -0.278 E-score.
Regarding ACATATGC, the binding signal is -0.117 E-score.
As to AGTAGGAG, the binding signal was 0.0738 E-score.
With ATGAACTA the figure was -0.0948 E-score.
In the case of CTGTAGCC, the binding signal is -0.102 E-score.
With CCGTGAGA the figure was -0.109 E-score; with CAGGCCTA, -0.0805 E-score.
For the sequence AGGCGTCC, the binding signal was -0.0248 E-score.
The value for ATTAGACA was 0.0182 E-score; that for ATCGAATA was -0.0157 E-score; that for CAAGATTG was -0.0628 E-score.
With AGGTACAA the figure was -0.156 E-score; with GAGACCAC, -0.162 E-score; with GAACTATC, -0.103 E-score.
With ATTGGAAC the figure was 0.0862 E-score; with CATAACCA, -0.00413 E-score; with AATCATAA, 0.115 E-score.
For the sequence CAGTAGAA, the binding signal was -0.176 E-score.
The value for TACGTACA was 0.18 E-score; that for GTATGGGA was 0.0596 E-score.
The value for CAAACGGC was -0.237 E-score.
With TGGGGCAA the figure was -0.252 E-score.
Turning to AAAACTCC, the binding signal is -0.0377 E-score.
With CGCATGGA the figure was 0.0866 E-score.
With CCGCCTAC the figure was 0.0564 E-score; with AACAATGT, -0.12 E-score.
With CGTTCGGA the figure was -0.057 E-score; with AAAAGCCT, -0.343 E-score; with AAGGAGGT, 0.091 E-score.
TGCCGAAA: the binding signal is -0.0602 E-score.
CGGATCAC: the binding signal came out at 0.174 E-score.
The value for ATGCTGCG was -0.0813 E-score.
For AGTCTGAT, the binding signal was -0.0468 E-score.
Regarding TACGAAAA, the binding signal is -0.00785 E-score.
Take TAGACGAA: the binding signal is -0.11 E-score.
With ACGAAACA the figure was 0.0241 E-score; with GACAAAGA, 0.00447 E-score.
Consider GCTTGTCC, for which the binding signal is -0.125 E-score.
The value for AGGTATAC was 0.0967 E-score; that for CCAGGGGC was -0.0582 E-score.
For the sequence ATCAAGAC, the binding signal amounted to 0.0588 E-score.
With CAAGTCAC the figure was -0.0776 E-score; with CTATAGGC, -0.228 E-score.
With ATGGCCTA the figure was -0.0818 E-score; with GGAGGGAA, -0.117 E-score.
Consider ATAATCAA, for which the binding signal was -0.0903 E-score.
With ACTCTTCA the figure was -0.0456 E-score.
CGTTGTAG: the binding signal is -0.0521 E-score.
With CGCTGCCG the figure was -0.0806 E-score; with ACCAGTGG, 0.189 E-score; with ATGGGAAG, -0.136 E-score.
With CCCAGAAA the figure was 0.137 E-score; with CTTACCTC, -0.282 E-score; with GATACTTA, 0.0931 E-score.
The value for CAAGGCTA was -0.218 E-score; that for AGCATGAC was -0.012 E-score; that for CGTAGGTC was -0.15 E-score.
Take AGATAACA: the binding signal was found to be 0.0446 E-score.
The value for AAATTTAT was -0.246 E-score.
In the case of ACGAGCCT, the binding signal was 0.0806 E-score.
The value for CGTCACGC was 0.00816 E-score.
With ACAACATC the figure was -0.322 E-score.
On to CGTTCAAC, for which the binding signal came to 0.136 E-score.
With ACAGTGGT the figure was 0.0251 E-score; with ACTGTGCG, -0.0964 E-score; with ATTTTAGG, -0.0923 E-score.
On to ACCATATC, for which the binding signal was -0.0618 E-score.
Take CAGTCCCC: the binding signal is -0.269 E-score.
The value for CTGACGTC was -0.00497 E-score.
The value for CAACAAGC was -0.0815 E-score.
As to ATCTCTTG, the binding signal is -0.00257 E-score.
With GAGAACAA the figure was -0.27 E-score; with CGTGGAAA, -0.127 E-score; with AGCCGACA, 0.221 E-score.
The value for GTTAAGGA was 0.163 E-score; that for GCAGTCCC was -0.152 E-score.
AATGCTAT: the binding signal is -0.101 E-score.
Regarding AGGCTGGG, the binding signal worked out at 0.00773 E-score.
With AAGAGCAT the figure was -0.0832 E-score; with GGGATGTA, 0.159 E-score; with ACTCTGAA, -0.0269 E-score.
As to AACCGCGT, the binding signal came to 0.0779 E-score.
Take CCCAATCA: the binding signal is -0.0903 E-score.
Consider CAGTCCGG, for which the binding signal was -0.00157 E-score.
With ACTGTCAT, the binding signal is -0.00922 E-score.
With GGCTATAA the figure was -0.0255 E-score; with AGCATGAA, -0.211 E-score.
On to AACCACGC, for which the binding signal is -0.0526 E-score.
With CAACGAGG the figure was 0.149 E-score; with CGAAATCG, -0.224 E-score.
AGATACCC: the binding signal was 0.278 E-score.
For CACCGGTC, the binding signal is 0.21 E-score.
The value for AATCAGTC was -0.185 E-score; that for GGCCACAA was 0.023 E-score.
The value for GTCGTTGA was 0.0916 E-score.
ATCGTAAG: the binding signal is -0.132 E-score.
With AGTGATTG the figure was -0.207 E-score; with CTAAAGAC, 0.0356 E-score; with AGAGCAGA, -0.256 E-score.
The value for AACACGAG was 0.361 E-score; that for TCCGTACA was 0.136 E-score.
The value for TCAACGAA was -0.124 E-score.
Turning to GTTGCTGA, the binding signal is -0.144 E-score.
With AACTGTAT the figure was -0.225 E-score; with CGGTTCCC, -0.211 E-score; with CACGTCAG, 0.0314 E-score.
Regarding ACACTGCA, the binding signal was 0.385 E-score.
With CGACATAG the figure was -0.253 E-score; with AGCTGACT, -0.177 E-score; with CCCATTCA, -0.0702 E-score.
CCAAGAGG: the binding signal was -0.00346 E-score.
The value for CTCAACAC was 0.393 E-score; that for AAACCAAC was -0.134 E-score; that for GAGGTCAA was -0.11 E-score.
With GGGATATA, the binding signal is 0.0559 E-score.
On to AGTGGATC, for which the binding signal was found to be 0.216 E-score.
As to ACAGTCTC, the binding signal was 0.00219 E-score.
In the case of ACCCGGTA, the binding signal came to 0.236 E-score.
On to TTTACAAA, for which the binding signal is -0.0198 E-score.
With CACGATTC the figure was 0.169 E-score.
The value for GCTAGCGA was -0.287 E-score; that for GTAGAGAC was -0.108 E-score.
Regarding GTATAGTA, the binding signal was -0.0218 E-score.
The value for AGGTTCAT was -0.16 E-score; that for CTGCGGAA was -0.00894 E-score.
With ATTTATTG, the binding signal was -0.148 E-score.

Values taken from article PMC10668032.
